# Source: a collection of fitness landscapes (doi:10.1016/j.celrep.2020.107928)
# Whole data set: some 81,000 sequences, median “one-hybrid fitness for binding NBS DNA” near -0.1, cut for the highest 2% near 0.36. Some of the results follow.
# B1: Caulobacter ParB omega fusion; a variant is named by its letters at X, in order, B8GW30 (parent)
# chain: MESVVVGEPGMSEGRRGLGRGLSALLGEVDAAPAQAPGEQLGGSREAPIEILQRNPDQPRRTFREEDLEDLSNSIREKGVLQPILVRPSPDTAGEYQIVAGERAWRAAQRAGLKTVPIMVRELDDLAVLEIGIIENVQRADLNVLEEALSYKVLMEKFERTQENIAQTIGKSXSHVANXMRLLXLPDEVQSYLVSGELTAXHARAIAAAADPVALAKQIIEGGLSVRETEALARKAPNLSAGKSKGGRPPRVKDTDTQALESDLSSVLGLDVSIDHRGSTGTLTITYATLEQLDDLCNRLTRGI
# Variants of: B1
# Assay: one-hybrid fitness for binding NBS DNA (the Noc-binding site; scaled: cognate 1, non-cognate 0); higher = stronger binding
# Conditions: with NBS DNA site
# How it was run: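 Fitness here means the log change in variant-to-wild-type read ratio between plasmids sequenced before and after selection. That scale was set so cognate equals 1 and non-cognate equals 0. The selection was a bacterial one-hybrid screen of Caulobacter ParB libraries, four specificity codons randomised, in E. coli USO carrying a HIS3 reporter with the site 19 bp from the promoter, grown 48 hours at 37°C on M9-minus-histidine with 0.1 mM IPTG and 5 mM 3-AT.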
row,Variant,one-hybrid fitness for binding NBS DNA
1,NLDS,≤ 0.2
2,QPPN,≤ 0.2
3,WYNY,≤ 0.2
4,RYKF,≤ 0.2
5,MHHR,≤ 0.2
6,DMRN,≤ 0.2
7,QHGL,≤ 0.2
8,PYYR,≤ 0.2
9,MVVT,≤ 0.2
10,LDWG,≤ 0.2
11,MHNM,≤ 0.2
12,IIKR,≤ 0.2
13,STPM,≤ 0.2
14,SETM,≤ 0.2
15,FDTG,≤ 0.2
16,AFSM,≤ 0.2
17,RHKR,0.701
18,PWTI,≤ 0.2
19,IQVN,≤ 0.2
20,NFYG,≤ 0.2
21,IWPR,≤ 0.2
22,KYPV,≤ 0.2
23,ESTC,≤ 0.2
24,SRME,≤ 0.2
25,HVNS,≤ 0.2
26,TFDL,≤ 0.2

row,Variant,one-hybrid fitness for binding NBS DNA
1,RKML,≤ 0.2
2,SAEQ,≤ 0.2
3,ARSA,≤ 0.2
4,GLFE,≤ 0.2
5,CLLK,≤ 0.2
6,PYMN,≤ 0.2
7,CALT,≤ 0.2
8,QEIP,≤ 0.2
9,QISG,≤ 0.2
10,HKSE,≤ 0.2
11,TNLY,≤ 0.2
12,VAKE,≤ 0.2
13,ECGM,≤ 0.2
14,QREH,0.258
15,HIRR,≤ 0.2
16,CMID,≤ 0.2
17,TAHK,≤ 0.2
18,FEEV,≤ 0.2
19,GRAF,≤ 0.2
20,SPYY,≤ 0.2
21,KPGT,≤ 0.2
22,FMVT,≤ 0.2
23,SKDG,≤ 0.2
24,LDTD,≤ 0.2
25,KKRA,≤ 0.2
26,PHAE,≤ 0.2

row,Variant,one-hybrid fitness for binding NBS DNA
1,QTWC,≤ 0.2
2,DPFE,≤ 0.2
3,QSYQ,≤ 0.2
4,CTHP,≤ 0.2
5,TRMS,≤ 0.2
6,SMGA,≤ 0.2
7,LTAH,≤ 0.2
8,TSWG,≤ 0.2
9,RCNC,0.302
10,QFQI,≤ 0.2
11,SYQT,≤ 0.2
12,QAKW,0.263
13,TYPF,≤ 0.2
14,AEQK,≤ 0.2
15,FVKY,≤ 0.2
16,TNET,≤ 0.2
17,IYAR,≤ 0.2
18,MHTT,≤ 0.2
19,ILQS,≤ 0.2
20,EVVF,≤ 0.2
21,VETV,≤ 0.2
22,NQSR,≤ 0.2
23,PGHK,≤ 0.2
24,ATYL,≤ 0.2
25,AVSL,≤ 0.2
